Results: PubChem BioAssay AID1460 (National Center for Advancing Translational Sciences (NCATS), 2008)
The campaign covered roughly 270,000 compounds. About 5,800 (2.1%) were called active. Inconclusive means that the source gave no clear call. Such entries were picked first, then a sample of the others. Calls come from the whole dose curve; as a rule, active = well fitted inhibition curve with a large enough effect; inconclusive = small, poorly fitted or top-dose-only effect; inactive = flat fitted curve, though single readings scatter. A potency beside an inconclusive call is a rough fit, not a confirmed value.

molecular target: Microtubule-associated protein tau (Homo sapiens) (UniProt P10636); test: qHTS for Inhibitors of Tau Fibril Formation, Thioflavin T Binding; conditions: recombinant tau K18 P301L (four-repeat tau fragment), heparin-induced fibrillization, ThT fluorescence; series mostly up to 57.4 µM; activity, negative = inhibition: at the top concentration; note: nearly all actives have a fitted effect of over 55% in size
Method in brief: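 K18 P301L tau (15 uM + 0.24 uM Alexa 594-tagged), heparin 20 uM, NaOAc pH 7, 6 h 37 C; ThT 30 uM, 1 h RT, ex 450/em 510 nm.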
% is set by controls: 0 for no effect and ±100 for the full control effect; potency is the fitted concentration of half-maximal effect; tags give direction and shape of the fitted curve.

Chain of UniProt P10636 (P10636 whole entry, looked up, the tested form may be a part): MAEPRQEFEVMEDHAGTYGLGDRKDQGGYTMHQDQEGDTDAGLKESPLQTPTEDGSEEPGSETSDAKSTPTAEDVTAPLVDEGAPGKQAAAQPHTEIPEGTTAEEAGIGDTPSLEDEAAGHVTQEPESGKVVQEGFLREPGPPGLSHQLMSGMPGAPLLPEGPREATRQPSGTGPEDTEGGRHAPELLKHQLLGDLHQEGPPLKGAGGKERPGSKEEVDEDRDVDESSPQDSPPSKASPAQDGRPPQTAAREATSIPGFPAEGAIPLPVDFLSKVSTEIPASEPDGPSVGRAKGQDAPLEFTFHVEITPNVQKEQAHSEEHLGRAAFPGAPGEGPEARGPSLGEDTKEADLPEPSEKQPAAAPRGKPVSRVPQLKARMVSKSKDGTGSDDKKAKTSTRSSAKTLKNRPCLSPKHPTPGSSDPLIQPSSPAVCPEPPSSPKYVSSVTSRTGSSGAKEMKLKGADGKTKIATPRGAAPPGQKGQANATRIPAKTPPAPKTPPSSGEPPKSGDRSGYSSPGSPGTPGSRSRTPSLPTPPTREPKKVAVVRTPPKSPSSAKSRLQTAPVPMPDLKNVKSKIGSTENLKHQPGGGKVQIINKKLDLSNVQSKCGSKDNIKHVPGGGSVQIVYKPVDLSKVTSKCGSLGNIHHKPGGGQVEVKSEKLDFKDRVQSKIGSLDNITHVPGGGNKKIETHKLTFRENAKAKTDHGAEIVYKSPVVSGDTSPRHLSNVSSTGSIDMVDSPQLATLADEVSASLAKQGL

| Structure (SMILES) | Potency | activity, negative = inhibition |
| --- | --- | --- |
| CN(O)/C=C1\C(=O)Nc2ccccc21 | inconclusive: 14.1 µM [inhibitor, partial curve] | – |
| CCN(CC)c1ccc(/C=N/N2C(=O)c3ccccc3C2=O)cc1 | inconclusive: 7.08 µM [inhibitor, partial curve] | – |
| C1=C(CCNc2ncnc3c2cnn3-c2ccccc2)CCCC1 | inconclusive: 0.355 µM [inhibitor, full curve, poor fit] | – |
| Cc1csc(NC(=O)CSc2nsc(SCC(=O)Nc3nc(C)cs3)c2C#N)n1 | active: 3.98 µM | – |
| Cc1ccc(S(=O)(=O)NCCc2nnc3ccc(SCc4ccccc4C)nn23)cc1 | – | inactive: -8.12% |
| Cc1cc(-c2ccco2)n2c(nc3ccccc32)c1C#N | inconclusive: 20 µM [inhibitor, partial curve] | – |
| COCCn1c(SCC(=O)c2ccc3c(c2)OCCO3)nnc1C(C)C | inconclusive: 31.6 µM [inhibitor, partial curve, poor fit] | – |
| CN(C)c1cccc(C(=O)N/N=C/c2ccccc2F)c1 | inconclusive: 8.91 µM [inhibitor, partial curve] | – |
| CCOC(=O)N1CCN(c2cc(C)c([N+](=O)[O-])cc2F)CC1 | inconclusive: 3.98 µM [inhibitor, partial curve] | – |
| Cc1cccn2c(=O)c3cc(C(=O)NC(C)c4ccccc4)c(=N)n(CCCn4ccnc4)c3nc12 (stereo not drawn) | – | inactive: -5.94% |
| CCOC(=O)c1c(NC(=O)c2ccccc2)sc2c(O)c(CN(CC)CC)ccc12 | inconclusive: 14.1 µM [inhibitor, partial curve] | – |
| C#CCOCCOCCOCCNc1nc(N2CCN(C(=O)[C@H](CCCCN)n3cc(C(N)CC(C)C)nn3)CC2)nc(N2CCN(C(=O)[C@H](CCC(=O)O)n3cc(C(N)[C@H](C)CC)nn3)CC2)n1 (stereo partly drawn) | inconclusive: 28.2 µM [inhibitor, single point] | – |
| CCn1c2ccccc2c2cc(NC(=O)CSc3nnc(-c4ccc(OC)c(OC)c4)n3N)ccc21 | inconclusive: 1.41 µM [inhibitor, full curve] | – |
| COc1ccc(S(=O)(=O)NCCSCc2ccccc2C)cc1Br | inconclusive: 22.4 µM [inhibitor, partial curve] | – |
| CCOC(=O)OCC1OC(c2ccccc2)C=CC1Oc1ccc2oc(=O)cc(C)c2c1 (stereo not drawn) | – | inactive: -3.39% [at 11.5 µM] |
| CN(C)/C=C/C(=O)c1ccc(S(=O)(=O)c2ccccc2)cc1 | inconclusive: 35.5 µM [inhibitor, single point] | – |
| COc1cc2c(cc1OC)CC(=O)N(C)CC2 | – | inactive: 5.6% |
| Cc1ccc(OC(=O)c2cc(-c3ccc4c(c3)OCCO4)on2)c(C)c1 | inconclusive: 10 µM [inhibitor, partial curve] | – |
| c1ccc2[nH]c(-c3ccnc4ccccc34)nc2c1 | inactive | – |
| O=C1/C(=C/c2ccccn2)COc2ccccc21 | inconclusive: 17.8 µM [inhibitor, single point] | – |
| CCS(=O)(=O)N1N=C(c2ccc(C)cc2)CC1c1cc2ccc(OC)cc2nc1Cl (stereo not drawn) | – | inactive: -8.63% |
| Cn1nnnc1SCCCNCc1cccc(OCc2ccc(Cl)cc2)c1 | – | inactive: -14.2% |

| Structure (SMILES) | Potency | activity, negative = inhibition |
| --- | --- | --- |
| C=C(C(C)=O)C(O)c1ccc([N+](=O)[O-])cc1 (stereo not drawn) | inconclusive: 22.4 µM [inhibitor, partial curve] | – |
| CC(C)CCOc1ccc(C(=O)Nc2sc3c(c2C#N)CCCCC3)cc1 | inconclusive: 2.51 µM [inhibitor, full curve, poor fit] | – |
| CC1=NNC(=O)C1C(c1ccccc1)C(C#N)C#N (stereo not drawn) | inconclusive: 39.8 µM [inhibitor, single point] | – |
| CCCCCn1c(CN2CCN(c3cccc(Cl)c3)CC2)nc2c1c(=O)[nH]c(=O)n2C | inconclusive: 28.2 µM [inhibitor, single point] | – |
| COc1cc(/C=C/c2cc(C(F)(F)F)[nH]c(=O)n2)cc(OC)c1OC | inconclusive: 15.8 µM [inhibitor, partial curve] | – |
| CCOCCCNC(=S)N1CCCN(c2nc3cc(C)cc(C)c3cc2C#N)CC1 | inconclusive: 17.8 µM [inhibitor, single point] | – |
| O=C(Nc1ccc(F)cc1)[C@H](Cc1ccccc1)N1Cc2ccccc2C1=O | – | inactive: 1.7% |
| COc1cccc(-c2nc(-c3ccc(-c4ccccc4)nc3OC)no2)c1 | inconclusive: 2 µM [inhibitor, full curve] | – |
| CC(C)[C@@H](CC(=O)N[C@@H]1CCCC[C@H]1C(=O)N[C@H](CC(=O)N[C@@H](CCC(=O)O)CC(=O)O)Cc1ccccc1)NC(=O)C[C@H](Cc1c[nH]c2ccccc12)NC(=O)[C@@H]1CNCC[C@H]1N | – | inactive: -8.84% |
| CCOC(=O)C1CCN(C(c2ccccc2OC)c2c(O)cc(C)n(CCOC)c2=O)CC1 (stereo not drawn) | inconclusive: 28.2 µM [inhibitor, partial curve] | – |
| O=C(O)C1CSC(CCc2ccccc2)N1 (stereo not drawn) | inconclusive: 0.158 µM [inhibitor, full curve, poor fit] | – |
| Cc1ccc(C(=O)Nc2ccc(Cl)c(-c3nc4ncccc4o3)c2)c(C)c1 | inconclusive: 1.58 µM [inhibitor, full curve, poor fit] | – |
| Cc1ccccc1OCc1ccc(-c2nc(C#N)c(NCCCN(C)C)o2)o1 | – | inactive: -13% |
| Cc1ccccc1-c1nc(CNC(=O)Nc2ccccc2)c(C)o1 | – | inactive: 2.18% |
| NC[C@](O)(CS(=O)(=O)O)c1ccc(Cl)cc1 | – | inactive: -2.68% |
| S=c1[nH]nc(CSCCOc2ccc(Cl)cc2Cl)o1 | – | inactive: -5.67% |
| CN(C)c1ccc(CNc2nc(-c3ccco3)nn2S(=O)(=O)c2ccc3ccccc3c2)cc1 | – | inactive: -10.1% |
| Cc1cc(C)c2c(CC(=O)N(Cc3ccc(N(C)C)cc3)Cc3ccco3)coc2c1 | inconclusive: 3.55 µM [inhibitor, full curve] | – |
| C/C(CCCO)=N/Nc1ccc([N+](=O)[O-])cc1[N+](=O)[O-] | inconclusive: 12.6 µM [inhibitor, partial curve] | – |
| COc1ccc(C(=O)n2cc(C(=O)c3cc(C)ccc3O)cn2)cc1 | inconclusive: 8.91 µM [inhibitor, partial curve] | – |
| CCN(CC)C(=O)C(C(=O)c1cccc([N+](=O)[O-])c1)n1cc(Cl)ccc1=O (stereo not drawn) | – | inactive: 0.168% |
